For 56 variants, self-cleavage results are on record in the RNAGym collection of RNA variant scans (doi:10.7554/elife.90254).

B1: LINE1-mini (parent)
chain: GGCAGAGCUCAACACAGCGUGGCAAAGUGGCUGUGGCUAGACUGCC

Read counts are not given, so values of variants with three or more changes are uncertain.

The variants in this data set derive from B1. Nature of the data set: self-cleavage, relative activity (ratio to wild type); higher = more cleavage; in vitro, sequencing; the parent is a self-cleaving ribozyme.
For GGCAGAGCUCAACACAGCUGGGCAAAGUGGCUGUGGCCAGACUGGC, the self-cleavage is 0.96.

For the variant GGCAGAGCUCAACACAGCUUGGCAAAGUGGCCGUGGCUAGACUGCU, the self-cleavage came out at 0.03.

In the case of GGCAGAGCUCAACACAGCUAUGCAAAGUGGCUGUGGCUAGACUGCC, the self-cleavage was 0.22.

Regarding GGCAGAGCUCAACACAGCUAGGCAACGUGGCUGUGGAUAAACUGCC, the self-cleavage stood at 0.02.

On to GGCAGAGCUCAACACAGCUUGGCAAAGUGCCUGUAGCUAGACUGCC, for which the self-cleavage was found to be 0.04.

Turning to GGCAGAGCUCAACACAGCUUGGCAAAUUGGCUGUGGCUACACUGCC, the self-cleavage worked out at 0.16.

GGCAGAGCUCAACACAGCUUGGCAAAGUGGGCGUGGCUAGACUGGC: the self-cleavage stood at 0.05.

Take GGCAGAGCUCAACACAGCUUGACAAAGUGGCUGUGGCUAGACUGUC: the self-cleavage was determined as 0.91.

Take GGCAGAGCUCAACACAGCUGUGCAAAGUGGCUGUGGCUAGACUGCC: the self-cleavage was determined as 0.61.

As to GGCAGAGCUCAACACAGCUUGGCUAAGUCGCUGUGGCUAGACAGCC, the self-cleavage amounted to 0.05.

With GGCAGAGCUCAACACAGCCUGGCAAAGAGGCUGUGGCUAAACUGCC, the self-cleavage was determined as 0.02.

Regarding GGCAGAGCUCAACACAGCUUGUCCAAGUGGGUGUGGCCAGAAUGCC, the self-cleavage is 0.03.

For the variant GGCAGAGCUCAACACAGCUUGUCGAAGCGUCUGUGGCUAGGCUACC, the self-cleavage amounted to 0.04.

As to GGCAGAGCUCAACACAGCUUGGCUAAGUGACUGUGGCUAGACUGCC, the self-cleavage was 1.8.

As for GGCAGAGCUCAACACAGCUUGGCACAGUGGCUGUGGCUAGACUGCG, the self-cleavage was determined as 0.29.

Regarding GGCAGAGCUCAACACAGCUUGGCACAGUGGCUGUGGGUAGACUGCC, the self-cleavage was determined as 0.03.

For the variant GGCAGAGCUCAACACAGCUUGGUAAAAUCGCUGUGGCUAGACUGCC, the self-cleavage came out at 0.29.

For the variant GGCAGAGCUCAACACAGCUUGGAAAACUGUCUGUGGCUAGACUGCC, the self-cleavage stood at 2.51.

With GGCAGAGCUCAACACAGCUUGACAAAGUGGCUGUGGCUAGCCUGCC, the self-cleavage came to 0.05.

As to GGCAGAGCUCAACACAGCUUGGCAAAGGGGCUUUGGCUAGACUGCC, the self-cleavage turned out to be 0.07.

GGCAGAGCUCAACACAGCUUGGCAAAGUGGCUGUGGUUAGACUGAC: the self-cleavage amounted to 0.03.

For the variant GGCAGAGCUCAACACAGCUUGGCAAUGUGGCUGUGGCUAGACUGCA, the self-cleavage stood at 1.32.

As to GGCAGAGCUCAACACAGCUUGGCAUAGUGGCUGUGGCUAGACUGUC, the self-cleavage came out at 2.06.

Turning to GGCAGAGCUCAACACAGCUUGGCAAAAUAGCUGUGGCUUGACUGCC, the self-cleavage came to 0.26.

In the case of GGCAGAGCUCAACACAGCUUGCCAAAGCGGCUGUGGCCAGACUGCC, the self-cleavage came to 0.37.

Regarding GGCAGAGCUCAACACAGCUUAGCAAAGUGGCUGUGGCUAGUCUGCC, the self-cleavage is 1.17.

Regarding GGCAGAGCUCAACACAGCUAGGCAAUGUGGCUGUGGCCAGACUGCC, the self-cleavage is 0.14.

For the variant GGCAGAGCUCAACACAGCUUGGCAACGUGGUUGUCGCUAGACUGCC, the self-cleavage was 0.01.

Turning to GGCAGAGCUCAACACAGCUUGACAAAGUGUCUGUGGCUAGACUUAC, the self-cleavage came to 0.07.

Regarding GGCAGAGCUCAACACAGCUUUGCACCGUGCCUGUGGCUAGAGUGCC, the self-cleavage was found to be 0.03.

For GGCAGAGCUCAACACAGCUUGGCACUGUGGCUGUGGCUAGACUGCC, the self-cleavage is 2.3.

Turning to GGCAGAGCUCAACACAGCCUGGCAAAGAGGCUGAGGCUAGACUGUC, the self-cleavage turned out to be 0.98.

As to GGCAGAGCUCAACACAGCUAGGCAAAGUGGCGGUGGCGAGACUGCC, the self-cleavage came to 0.02.

Consider GGCAGAGCUCAACACAGCCAGGCAAAGUCGCUGUGGUUAGACUGCC, for which the self-cleavage was found to be 0.07.

For the variant GGCAGAGCUCAACACAGCUUGGCAAACUGGCUGUGGCUAGACUCCC, the self-cleavage came out at 0.28.

As for GGCAGAGCUCAACACAGCUUGGCAAAGUGGCUAUGGGUAGACUGCC, the self-cleavage worked out at 0.05.

As for GGCAGAGCUCAACACAGCUUGGCAGUGUGGCUGUGGCUAGACUGCC, the self-cleavage amounted to 0.15.

Regarding GGCAGAGCUCAACACAGCUUGGCAAAGUUGGUGUGGCUAGACUGCC, the self-cleavage came to 0.07.

Consider GGCAGAGCUCAACACAGCUAGGCAAAGUGGCUGUGGCUAGACAUCC, for which the self-cleavage was determined as 0.03.

Turning to GGCAGAGCUCAACACAGCCAGGCAAAGUGGCUGUGGCAAGACUACC, the self-cleavage stood at 0.02.

Consider GGCAGAGCUCAACACAGCUUGGCAAACUGGCUGUGGCUAGAUUGCC, for which the self-cleavage was found to be 0.1.

For the variant GGCAGAGCUCAACACAGCUCGGCAAAGUGGCUCUGGCUAGACUGCC, the self-cleavage was 0.05.

For the variant GGCAGAGCUCAACACAGCUUGGCAAAGUGGCUGUGGCUAGAAUUCC, the self-cleavage was determined as 0.05.

Turning to GGCAGAGCUCAACACAGCUUAGUAAAGUGGCUGUGGCCAGACUGCC, the self-cleavage was 0.57.

With GGCAGAGCUCAACACAGCCCGGCAAAGUGCCUGUGGUUAGACUGCC, the self-cleavage was 0.

On to GGCAGAGCUCAACACAGCUUAGCAAGGUGGCUGUGGUUAGACUGCC, for which the self-cleavage was 0.04.

Consider GGCAGAGCUCAACACAGCUUGGCACAGUGGCUGUGGCUAGAGUGCC, for which the self-cleavage amounted to 0.02.

With GGCAGAGCUCAACACAGCUUGGCCUAGUGGCUGAGGCUAGACUGCC, the self-cleavage is 0.05.

With GGCAGAGCUCAACACAGCUUGGCAAAGUGGCUGUGGCUAAACGGCC, the self-cleavage came to 0.09.

In the case of GGCAGAGCUCAACACAGCUUGGCAAAGUGGCUGUGCCUAGAAUGCC, the self-cleavage worked out at 0.1.

For the variant GGCAGAGCUCAACACAGCUUGGCAACGUGGCUGUGGCUCGACUGCC, the self-cleavage worked out at 0.04.

GGCAGAGCUCAACACAGCUUGGCAAAGCGCCUGUAGCCAGACUGCC: the self-cleavage stood at 0.04.

GGCAGAGCUCAACACAGCUUAGCCAAGUGGCUGUGGCUAGACUGCC: the self-cleavage is 1.04.

Consider GGCAGAGCUCAACACAGCUUGGCAAAGUCGAUGUGGCUAGGCUGCC, for which the self-cleavage came to 0.04.

Regarding GGCAGAGCUCAACACAGCCUGGCAAAGUGGCAGUCGCUAGACUGCU, the self-cleavage was 0.42.

Take GGCAGAGCUCAACACAGCUUGGCAAAGUUUCUGUGUCUAGACUGCA: the self-cleavage was 0.03.
